In the supplement of paper PMC4723716 one finds viability index data, which are given here for 69 compounds.

± gives the uncertainty stated by the source. Whole data set: some 9,900 compounds, median “viability index relative to DMSO control” near 1, cut for the lowest 2% near 0.85. The list shows a part of the results.

In this assay the test system is Plasmodium falciparum NF54 stage V gametocytes. Kind of assay: viability index relative to DMSO control (fraction); higher = less gametocyte killing. The settings on record: 2.5 µM, incubation time: 72 h. As for the experimental part: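 Broad DOS informer set and blood-stage-active DOS compounds screened in duplicate at 2.5 µM against P. falciparum NF54 stage V gametocytes with the serum-free one-step SaLSSA (1536-well): 72 h at 37 °C under low oxygen, then saponin lysis and MitoTracker Red CMXRos staining, with high-content imaging. Viability index = viable-object count divided by the plate mean of DMSO wells (0 = killed, about 1 = inactive).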

Where [1] appears, read: library set: Broad Institute DOS.

Compound `COCCNC(=O)[C@@H]1[C@@H](CO)[C@@H]2Cn3c(ccc(-c4ccc(F)cc4)c3=O)[C@H]1N2C(=O)NC(C)C` showed a viability index under setting [1] of 1.05 ± 0.029.
The same measure, in the same setting: as for `COCC(=O)Nc1ccc2c(c1)C(=O)N(C)[C@H]1CC[C@H](CC(=O)NCCCN(C)C)O[C@H]1CO2`, the figure is 1.05 ± 0.025; as for `O=C(C1CCOCC1)N1CC(=O)N2[C@H](CO)[C@@H](c3ccc(C#CC4CCCCC4)cc3)[C@@H]2C1`, 1.01 ± 0.045; as for `C[C@@H]1CN([C@@H](C)CO)C(=O)CCCn2nncc2CO[C@@H]1CN(C)Cc1ccc(C(=O)Nc2ccccc2N)cc1`, 1.05 ± 0.012.
Same read-out and setting: for `CN1C(=O)c2cc(NS(C)(=O)=O)ccc2OC[C@@H]2O[C@@H](CC(=O)N3CCOCC3)CC[C@@H]21` the value was 1.02 ± 0.084; for `CCS(=O)(=O)N1CC[C@@]2(CC1)CN([C@H](CO)c1c2c2ccc(OC)cc2n1C)C(=O)Nc1c(C)noc1C`, 1.07 ± 0.035.
Still for that read-out and setting: for `CCCNC(=O)N1C[C@]2(CN(C2)C(=O)c2cnccn2)c2c([nH]c3cc(OC)ccc23)[C@H]1CO` the value was 0.939 ± 0.058; for `CO[C@H]1CN(C)C(=O)c2cc(NC(=O)c3ccc4c(c3)OCO4)ccc2OC[C@@H](C)N(CCC(F)(F)F)C[C@H]1C`, 1.08 ± 0.015; for `O=C(Nc1cccc(F)c1)N1C[C@@H]2[C@H](c3ccccc31)[C@@H](CO)N2C(=O)Cc1ccccn1`, 1.08 ± 0.019.
`O=C(O)C[C@H]1CC[C@@H]2[C@H](COC[C@H](O)CN2S(=O)(=O)c2ccc(Oc3ccccc3)cc2)O1` displayed a viability index under setting [1] of 0.998 ± 0.049.
Still for that read-out and setting: for `O=C(C[C@@H]1CC[C@@H]2[C@H](COC[C@@H](O)CN2C(=O)Cc2ccccc2)O1)NC1Cc2ccccc2C1` the value was 1.05 ± 0.055; for `COCC(=O)Nc1ccc2c(c1)C(=O)N(C)[C@@H]1CC[C@H](CC(=O)N3CCc4ccccc4C3)O[C@H]1CO2`, 1.01 ± 0.037.
Still for that read-out and setting: for `CC(C)NC(=O)Nc1ccc2c(c1)C(=O)N(C)[C@@H]1CC[C@@H](CC(=O)NCc3ccc(F)cc3)O[C@@H]1CO2` the value was 1.06 ± 0.083; for `CN(C)CC(=O)N1C[C@@H]2N[C@H](C1)[C@H]2c1ccc(-c2ccccc2F)cc1`, 0.832 ± 0.011; for `COC(=O)C[C@@H]1CC[C@@H]2[C@H](COC[C@@H](O)CN2S(=O)(=O)c2cn(C)cn2)O1`, 0.99 ± 0.043.
On the same count and under the same terms, as for `COCC(=O)N1[C@H](CNC(=O)c2ccccn2)[C@H](c2ccccc2)[C@@H]1CO`, the figure is 0.984 ± 0.013; as for `CC(C)c1cccc(NC(=O)C[C@H]2CC[C@H]3[C@@H](COc4ccc(NC(=O)NCc5ccccc5)cc4C(=O)N3C)O2)c1`, 1.15 ± 0.082; as for `C[C@H](CO)N1C[C@H](C)[C@@H](CN(C)Cc2ccc(Oc3ccccc3)cc2)Oc2c(NC(=O)CCC(F)(F)F)cccc2C1=O`, 0.888 ± 0.11.
The compound `C[C@@H]1CN([C@@H](C)CO)C(=O)c2ccccc2-c2ccccc2CO[C@@H]1CN(C)Cc1ccc(Oc2ccccc2)cc1` gave a viability index under setting [1] of 0.871 ± 0.0091.
In turn, `O=C(Nc1cc(F)ccc1F)N1[C@@H]2CNC[C@H]1[C@@H]2c1ccc(/C=C/c2ccccc2)cc1` returned a viability index under setting [1] of 1.03 ± 0.028.
The same measure, in the same setting: for `C[C@@H](NC(=O)C[C@H]1C[C@H]2c3cc(NS(=O)(=O)c4ccc(F)cc4)ccc3O[C@H]2[C@@H](CO)O1)c1ccccc1` the value was 1.08 ± 0.027.
The compound `Cc1ccccc1-c1ccc([C@H]2[C@H]3CNC[C@@H]2N3Cc2cccnc2)cc1` yielded a viability index under setting [1] of 1.09 ± 0.037.
The same measure, in the same setting: for `Cc1ccc(S(=O)(=O)N[C@@H]2C=C[C@H](CC(=O)NCc3ccc(Cl)c(Cl)c3)O[C@H]2CO)cc1` the value was 1.03 ± 0.058.
Still for that read-out and setting: for `Cc1ccc(CN2CC(=O)N3[C@H](CO)[C@H](c4ccc(-c5ccccc5F)cc4)[C@@H]3C2)cc1` the value was 1.1 ± 0.023; for `COc1cccc(S(=O)(=O)N2CCCCN3[C@H](CO)[C@H](c4ccc(C#CCC(C)C)cc4)[C@H]3C2)c1`, 0.6428 ± 0.0032.
The same measure, in the same setting: as for `N#C[C@@H]1[C@@H](c2ccccc2C2=CCCCC2)[C@@H](CO)N1C(=O)c1ccccn1`, the figure is 1.01 ± 0.096; as for `OC[C@@H]1[C@@H](c2ccc(-c3cccc(F)c3)cc2)[C@@H]2CN(Cc3cncnc3)CCCCN12`, 0.968 ± 0.048.
`O=C(C[C@@H]1CC[C@H]2[C@@H](COC[C@H](O)CN2Cc2cccc(Cl)c2)O1)NCc1cccc(F)c1` returned a viability index under setting [1] of 1 ± 0.051.
On the same count and under the same terms, as for `Cc1ccc(S(=O)(=O)Nc2cccc3c2O[C@H](CN(C)C(=O)Nc2ccc(C(F)(F)F)cc2)[C@@H](C)CN([C@H](C)CO)C3=O)cc1`, the figure is 1.02 ± 0.029.
For the compound `C[C@@H]1CN([C@@H](C)CO)C(=O)c2cc(NC(=O)Nc3cccc4ccccc34)ccc2O[C@@H](C)CCCCO[C@@H]1CN(C)S(=O)(=O)c1cn(C)cn1`, the viability index under setting [1] worked out at 0.949 ± 0.081.
Still for that read-out and setting: for `CCC(=O)N1C[C@@H](O)COC[C@H]2O[C@@H](CC(=O)NCc3ccc(Oc4ccccc4)cc3)CC[C@@H]21` the value was 1 ± 0.043.
Still for that read-out and setting: as for `COc1ccc2c3c([C@@H](CO)N(C)C[C@]33CCN(CC3)C(=O)c3ccc4OCOc4c3)n(C)c2c1`, the figure is 0.9516 ± 0.0011; as for `O=C(C1CCOCC1)N1CC(=O)N2[C@@H](CO)[C@@H](c3ccc(-c4cccnc4)cc3)[C@@H]2C1`, 1.04 ± 0.028; as for `CC(C)C#Cc1ccc([C@@H]2[C@@H](CO)N(C(=O)c3cccc(F)c3)[C@H]2C#N)cc1`, 1.17 ± 0.073.
The same measure, in the same setting: for `N#C[C@H]1[C@H](c2ccccc2)[C@H](CO)N1C(=O)CCN1CCCCC1` the value was 1.03 ± 0.068.
Compound `CC(C)(O)C#Cc1ccc([C@H]2[C@H]3CN(S(C)(=O)=O)CCCCN3[C@H]2CO)cc1` had a viability index under setting [1] of 1.03 ± 0.037.
On to `O=C(C[C@H]1CC[C@@H]2[C@H](COC[C@H](O)CN2C(=O)Nc2ccc(F)cc2)O1)NC1CCC1`, for which, under setting [1], the viability index was found to be 1.11 ± 0.016.
On to `O=C(C[C@H]1C[C@@H]2c3cc(NS(=O)(=O)c4ccc(F)cc4)ccc3O[C@@H]2[C@@H](CO)O1)NCCN1CCCCC1`, for which the viability index under setting [1] stood at 1.05 ± 0.014.
On the same count and under the same terms, for `CO[C@@H]1CN(C)C(=O)c2ccc(NC(=O)Nc3cc(F)ccc3F)cc2OC[C@H](C)N(C(=O)c2ccccn2)C[C@@H]1C` the value was 1.07 ± 0.12.
Same read-out and setting: for `O=C(NC[C@@H]1[C@@H](c2ccccc2)[C@H](CO)N1C(=O)C1CCC1)NC1CCCC1` the value was 1.01 ± 0.047.
`CCS(=O)(=O)N1C[C@@]2(C1)CN(Cc1cc(F)ccc1F)[C@@H](CO)c1c2c2ccc(OC)cc2n1C`: under setting [1], the viability index was 0.927 ± 0.015.
Still for that read-out and setting: for `C[C@H](CO)N1C[C@H](C)[C@@H](CN(C)C(=O)Nc2ccc(C(F)(F)F)cc2)Oc2ccc(NC(=O)C3CCCCC3)cc2C1=O` the value was 0.982 ± 0.022.
On the same count and under the same terms, for `COc1ccccc1-c1cnc2c(c1)C(=O)N([C@@H](C)CO)C[C@@H](C)[C@H](CN(C)C(=O)CC1CC1)O2` the value was 1.06 ± 0.1.
The same measure, in the same setting: as for `O=C(CC1CC1)N1CC(=O)N2[C@H](CO)[C@H](c3ccc(C#Cc4cccc(F)c4)cc3)[C@@H]2C1`, the figure is 0.9103 ± 0.0077.
Under setting [1], `COc1ccc(CN(C)C[C@H]2OCCCC[C@@H](C)Oc3ccc(NC(=O)C4CCCCC4)cc3C(=O)N([C@@H](C)CO)C[C@@H]2C)cc1` gave a viability index of 0.905 ± 0.046.
On the same count and under the same terms, for `O=C(Nc1ccc2c(c1)[C@H]1C[C@H](CC(=O)N3CCCCC3)O[C@@H](CO)[C@H]1O2)NC1CCCCC1` the value was 0.981 ± 0.14.
In the case of `O=C(C[C@@H]1CC[C@H](NC(=O)Nc2ccc(C(F)(F)F)cc2)[C@H](CO)O1)NCc1cccc(F)c1`, the viability index under setting [1] was found to be 1 ± 0.024.
On the same count and under the same terms, as for `COc1ccccc1S(=O)(=O)N1CC[C@@H]2[C@H]1c1cc(C#CC3CCCCC3)ccc1N[C@@H]2CO`, the figure is 1.22 ± 0.062; as for `O=C(C[C@@H]1CC[C@H]2[C@@H](COC[C@H](O)CN2CCc2ccccc2)O1)NCCCN1CCOCC1`, 1.05 ± 0.044.
The same measure, in the same setting: as for `Cc1cccc(S(=O)(=O)N2C[C@@H](O)COC[C@H]3O[C@H](CC(=O)Nc4ccccc4)CC[C@@H]32)c1`, the figure is 1.053 ± 0.0012.
The same measure, in the same setting: for `CNC[C@H]1Oc2c(NS(=O)(=O)c3ccc(Cl)cc3)cccc2C(=O)N([C@@H](C)CO)C[C@H]1C` the value was 1.01 ± 0.034.
`O=C(C[C@@H]1C[C@@H]2c3cc(NC(=O)CC4CC4)ccc3O[C@@H]2[C@H](CO)O1)NCC1CC1`: under setting [1], the viability index is 1.062 ± 0.0029.
For `COc1ccc(S(=O)(=O)Nc2ccc3c(c2)CC(=O)N([C@H](C)CO)C[C@@H](C)[C@H](CN(C)Cc2ccc(C(=O)Nc4ccccc4N)cc2)O3)cc1`, the viability index under setting [1] was 0.966 ± 0.1.
The same measure, in the same setting: as for `COCC(=O)N(C[C@H]1[C@H](c2ccccc2)[C@@H](CO)N1C(=O)NC(C)C)C(C)C`, the figure is 1 ± 0.04; as for `COc1ccc2c3c([nH]c2c1)[C@H](CO)N(C[C@]31CCN(CC1)C(=O)Nc1ccc2OCOc2c1)C(=O)Nc1ccc(F)cc1`, 0.95 ± 0.1; as for `CNC[C@H]1OCCCC[C@@H](C)Oc2ccc(NS(=O)(=O)c3ccc(F)cc3)cc2C(=O)N([C@H](C)CO)C[C@H]1C`, 1.06 ± 0.019.
For `CCS(=O)(=O)N1[C@H](C#N)[C@@H](c2ccc(-c3cccc(F)c3)cc2)[C@@H]1CO`, under setting [1], the viability index stood at 1.12 ± 0.043.
Regarding `COc1ccc(C#Cc2ccc3c(c2)O[C@@H](CN(C)C(=O)Nc2cccc(OC)c2)[C@@H](C)CN([C@@H](C)CO)S3(=O)=O)cc1`, the viability index (library set: Broad Institute Blood Stage) came out at 0.612 ± 0.071.
Under setting [1], `C/C=C/c1ccc([C@@H]2[C@@H](CO)N3C(=O)CN(C(=O)Nc4ccc(F)cc4)C[C@H]23)cc1` came in with a viability index of 1.03 ± 0.018.
For `C/C=C/c1ccc([C@H]2[C@H]3CNC[C@@H]2N3C(=O)Nc2ccc(C(F)(F)F)cc2)cc1`, the viability index under setting [1] was found to be 1.12 ± 0.018.
Same read-out and setting: as for `Cc1cccc(-c2ccc([C@H]3[C@H]4CNC[C@@H]3N4C(=O)Nc3ccccc3Cl)cc2)c1`, the figure is 1.04 ± 0.054.
Same read-out and setting: as for `O=C(Cc1cccnc1)N1CC(=O)N2[C@@H](CO)[C@H](c3ccc(/C=C/c4ccccc4)cc3)[C@@H]2C1`, the figure is 1.015 ± 0.0057; as for `CC(C)CC#Cc1ccc([C@H]2[C@@H](CO)N3C(=O)CN(C(=O)c4ccccn4)C[C@@H]23)cc1`, 0.975 ± 0.037.
`Cc1noc(C)c1NC(=O)N(C)C[C@H]1OCCCC[C@H](C)Oc2ccc(NC(=O)Nc3ccc(C(F)(F)F)cc3)cc2C(=O)N([C@H](C)CO)C[C@@H]1C` registered a viability index under setting [1] of 1.09 ± 0.011.
The same measure, in the same setting: as for `Cc1ccc(S(=O)(=O)N[C@H]2C=C[C@@H](CC(=O)NCc3ccc(Cl)c(Cl)c3)O[C@H]2CO)cc1`, the figure is 0.972 ± 0.076; as for `CCN1CC(=O)N2[C@H](CO)[C@H](c3ccc(Br)cc3)[C@H]2C1`, 0.997 ± 0.093.
Same read-out and setting: for `N#Cc1ccc(-c2ccc3c(c2)[C@H]2[C@H](CCN2C(=O)C2CCCCC2)[C@@H](CO)N3)cc1` the value was 1.03 ± 0.078.
Regarding `COCC(=O)Nc1ccc2c(c1)[C@@H]1C[C@@H](CC(=O)N3CCOCC3)O[C@@H](CO)[C@@H]1O2`, the viability index under setting [1] was 1.02 ± 0.051.
On the same count and under the same terms, for `CCCNC(=O)N1C[C@]2(CCN(CC2)S(=O)(=O)CC)c2c([nH]c3cc(OC)ccc23)[C@H]1CO` the value was 0.976 ± 0.043.
